Results published in PubChem BioAssay AID602332 (National Center for Advancing Translational Sciences (NCATS), 2012).
Where “and” joins values, the source holds several entries; their conditions need not be identical. Equal values may be shown once. Among all 420,000 compounds or so, about 75 (0.02%) were called active. Calls follow the shape of the dose curve; as a rule, active = well fitted activation curve with a large enough effect; inconclusive = small, poorly fitted or top-dose-only effect; inactive = no such curve, though single readings can be large or run the other way. The entries are a selection whose mix differs from that of the whole data set.

test: qHTS for Inducers of the Endoplasmic Reticulum Stress Response (ERSR) in Human Glioma: qHTS; conditions: U87-MG GRP78 promoter luciferase reporter, 16 h; activation: stronger effect = higher value; also: nearly all actives have a fitted effect of over 35% in size; as to activation: % of control where 0% means no effect
Text: Primary protein unfolding takes place for many diseases, including diabetes and hypoxia, , and triggers a reaction in the cells called ER stress response (ERSR). ). ERSR is designed as a repair mechanism, but ultimately leads to cell death via apoptosis if conditions triggering protein unfolding persist (1). The molecular clue to ERSR activation is the enhancement of the expression of key molecular chaperones, including the glucose regulated protein (GRP) 78. GRP78 is the main sensor for protein folding and the main actuator of the ERSR.
In a collaboration between the Southern Research Institute and the NIH Chemical Genomics Center, a cell based screen was developed that reliably uses GRP78 as a sensor to identify small molecules as inducers of ERSR. In resting conditions, GRP78 binds proteins and acts as a natural repressor. Once unfolded proteins are present in the ER, GRP78 releases some of the repressors and binds to the unfolded proteins. The release of the repressors executes the ERSR program. Using a human glioma cell line in a miniaturized, luminescent format, a high-throughput screen was developed to identify actuators of the ERSR.
(1) Soboloff, J. and S. A. Berger (2002). "Sustained ER Ca2+ depletion suppresses protein synthesis and induces activation-enhanced cell death in mast cells." J Biol Chem 277(16): 13812-20.
NIH Chemical Genomics Center [NCGC]
NIH Molecular Libraries Probe Centers Network [MLPCN]
Assay Submitter (PI): Maurizio Grimaldi, Southern Research Institute
Stable transfected human glioma cell line, U87-MG, are dispensed at density 1000 cells/well into Greiner white solid bottom 1536-well assay plates. Compounds are transferred via Kalypsys pin tool equipped with 1536-pin array (10nl slotted pins, V&P Scientific, San Diego, CA). The assay plates will be incubated for 16 hours and developed by adding appropriate quantities of the Promega Bright Glo reagent. The plates will be incubated at room temperature for 10 minutes prior to being transferred into a ViewLux high-throughput CCD imager (PerkinElmer), wherein end-point measurements of luminescence are acquired.
Potency is read from the fitted curve at half-maximal effect.

Compound | activation | Potency
CCCN1CCc2cc(O)cc3c2C1Cc1ccc(O)c(O)c1-3 (stereo not drawn) | inactive: 0.324% | 
COc1ccc(OC)c([C@H](O)[C@H](C)N)c1 | inactive: -3.41% | 
CCCCCCCCCCCCCC(=O)O[C@@H]1[C@@H](C)[C@@]2(O)[C@H](C=C(CO)C[C@]3(O)C(=O)C(C)=C[C@@H]23)[C@@H]2C(C)(C)C12OC(C)=O (stereo partly drawn) | inactive: 8.75% | 
O=C1/C(=C\c2ccccc2)C[C@@]2(O)[C@H]3Cc4ccc(O)c5c4[C@@]2(CCN3CC2CC2)[C@@H]1O5 | inactive: -11.9% | 
C[C@@H]1C(=O)O[C@H]2C[C@@]34[C@H]5C[C@@H](C(C)(C)C)[C@]36[C@H](OC(=O)[C@H]6O)O[C@]4(C(=O)O5)[C@]21O | inactive: -7.36% | 
CN1CCc2cc(O)cc3c2C1Cc1ccc(O)c(O)c1-3 (stereo not drawn) | inactive: -3.45% | 
CN1CCc2cc(O)cc3c2[C@H]1Cc1ccc(O)c(O)c1-3 | inactive: 8.03% and inactive: -0.0347% and inactive: -14.7% | 
CN1CC[C@]2(C)c3cc(O)ccc3N(C)[C@@H]12 | inactive: -4.06% | 
CCn1nc(-c2ccccc2)nc2c(=O)n(C)c(=O)nc1-2 | inactive: -17.2% | 
C=CCN1CC[C@@]23c4c5ccc(O)c4O[C@H]2/C(=N\N=C2/CC[C@@]4(O)[C@H]6Cc7ccc(O)c8c7[C@@]4(CCN6CC=C)[C@@H]2O8)CC[C@]3(O)[C@@H]1C5 | inactive: -4.75% | 
CC1CC[C@@]2(OC1)O[C@@H]1[C@@H](O)[C@H]3C4CC[C@H]5C[C@@H](O[C@@H]6O[C@H](CO)[C@H](O[C@@H]7O[C@H](CO)[C@@H](O)[C@H](O[C@@H]8OC[C@@H](O)[C@H](O)[C@H]8O)[C@H]7O[C@@H]7O[C@H](CO)[C@@H](O)[C@H](O[C@@H]8O[C@H](CO)[C@@H](O)[C@H](O)[C@H]8O)[C@H]7O)[C@H](O)[C@H]6O)[C@H](O)C[C@]5(C)C4CC[C@]3(C)[C@H]1[C@@H]2C (stereo partly drawn) | inactive: -11.7% | 
CC1C(=O)OC2CC34C5CC(C(C)(C)C)C36C(OC(=O)C6O)OC4(C(=O)O5)C21O (stereo not drawn) | inactive: -2.37% | 
O=C1C2CC=CCC2C(=O)N1SC(Cl)(Cl)Cl (stereo not drawn) | inactive: -12.2% | 
O=C1NCN(c2ccccc2)C12CCN(CCCOc1ccc(F)cc1)CC2 | inactive: 1.97% | 
N#Cc1c(Cl)c(Cl)c(Cl)c(C#N)c1Cl | inactive: -11.6% and inactive: -12.6% | 
C/C=C(/C)C(=O)O[C@H]1C(C)=C2[C@H]([C@@H]1OC(=O)CCCCCCC)[C@@](C)(OC(C)=O)C[C@H](OC(=O)CCC)[C@@]1(O)[C@H]2OC(=O)[C@@]1(C)O |  | active: 16.5 nM
COc1ccc2c(c1)[C@@]13CCCC[C@H]1[C@@H](C2)NCC3 | inactive: -10.6% | 
CC1(C)C(=O)C=C[C@@]2(C)C1=C(O)C(=O)[C@@]1(C)C2CC[C@@]2(C)C(c3ccoc3)C[C@H]3O[C@@]321 (stereo partly drawn) | inactive: -12.5% | 
CC1CC[C@@]2(OC1)OC1C(O)C3C4CC[C@H]5CC(O[C@@H]6O[C@@H](CO)[C@H](OC7OC(CO)C(O)C(OC8OCC(O)C(O)[C@H]8O)[C@@H]7O[C@@H]7OC(CO)[C@H](O)[C@@H](O[C@@H]8OC(CO)C(O)C(O)C8O)C7O)C(O)C6O)C(O)C[C@]5(C)C4CC[C@]3(C)C1C2C (stereo partly drawn) | inactive: -12.5% | 
F/C(COc1ccc2c(c1)[nH]c1ccccc12)=C1/CN2CCC1CC2 | inactive: -2.04% | 
C[C@]12Cc3cn4c(nc3C=C1CCC1C2CC[C@@]2(C)[C@H]1CC[C@@]2(O)C#N)nc1ccccc14 (stereo partly drawn) | inactive: -13% | 
C=CCN1CCc2cccc3c2[C@H]1Cc1ccc(O)c(O)c1-3 | inactive: -4.28% | 
CCCCCCCCCCCCCC(=O)OC1C(C)[C@@]2(O)C(C=C(CO)C[C@]3(O)C(=O)C(C)=C[C@H]23)[C@@H]2C(C)(C)[C@]12OC(C)=O (stereo partly drawn) | inactive: 4.29% | 
O=C1NC(=O)N(CCc2ccc(F)cc2)C(=O)/C1=C\C=C\c1ccccc1 | inactive: 7.49% | 

Compound | activation | Potency
CCCC1COC(Cn2cncn2)(c2ccc(Cl)cc2Cl)O1 (stereo not drawn) | inactive: -4.94% and inactive: -12.4% | 
CC(=O)C1=C(O)C2C3c4c[nH]c5cccc(c45)CC3C(C)(C)N2C1=O (stereo not drawn) | inactive: 3.4% | 
Ic1ccccc1CN[C@@H]1C2CCN(CC2)[C@@H]1C(c1ccccc1)c1ccccc1 | inactive: -3.05% | 
C/C(O)=C(/C#N)C(=O)Nc1cc(Br)ccc1Br | inactive: -2.78% | 
CC1=CC(=O)c2c(O)cccc2C1=O | inactive: -12.5% and inactive: -11.9% | 
O=[N+]([O-])/C=C/c1ccc2c(c1)OCO2 | inactive: -14.6% | 
O=[N+]([O-])c1ccc(Sc2nc3ccccc3o2)c([N+](=O)[O-])c1 | inactive: -14.1% | 
C[C@@H]1C(=O)O[C@H]2C[C@@]34[C@H]5C[C@@H](C(C)(C)C)[C@]36[C@@H](OC(=O)[C@@H]6O)O[C@@]4(C(=O)O5)[C@]21O | inactive: -1.54% | 
CCCN1CCc2cc(O)cc3c2[C@H]1Cc1ccc(O)c(O)c1-3 | inactive: -4.54% and inactive: -11.6% and inactive: -14.5% | 
COC(=O)C1=C(C)NC(C)=C(C(=O)OC)C1c1ccccc1[N+](=O)[O-] | inactive: -6.28% [middle of 8 runs] | 
CN1CC[C@@]2(C)c3cc(O)ccc3N(C)[C@@H]12 | inactive: -5.61% and inactive: -5.77% and inactive: -4.26% | 
CCCCCCCCCCCCCC(=O)O[C@@H]1[C@@H](C)[C@@]2(O)[C@@H](C=C(CO)C[C@@]3(O)C(=O)C(C)=C[C@@H]23)C2C(C)(C)[C@@]21OC(C)=O (stereo partly drawn) | inactive: -14% | 
COc1ccc2c(c[n+](C)c3c4cc5c(cc4ccc23)OCO5)c1OC | inactive: -11.6% [middle of 4 runs] | 
CNc1ccc2oc(C[C@H]3O[C@@]4(CC[C@H]3C)O[C@H]([C@H](C)C(=O)c3ccc[nH]3)[C@H](C)C[C@H]4C)nc2c1C(=O)O | inactive: 0.258% | 
O=C1/C(=C/c2ccccc2)C[C@@]2(O)[C@H]3Cc4ccc(O)c5c4[C@@]2(CCN3CC2CC2)C1O5 (stereo partly drawn) | inactive: -11.9% | 
CN(C)C(=O)Oc1cc(OC(=O)N(C)C)cc(C(O)CNC(C)(C)C)c1 (stereo not drawn) | inactive: -3.42% and inactive: -1.07% and inactive: 0.439% | 
O=C1/C(=C\c2ccccc2)C[C@@]2(O)[C@H]3Cc4ccc(O)c5c4[C@@]2(CCN3CC2CC2)[C@H]1O5 | inactive: -11.7% | 
CN1CCC(O)(c2ccccc2)C(C(=O)c2ccccc2)C1 (stereo not drawn) | inactive: -18.4% | 
CC(C)(c1ccc(OCC2CO2)cc1)c1ccc(OCC2CO2)cc1 (stereo not drawn) | inactive: -2.74% and inactive: -11.3% | 
CC(COc1ccccc1)N(CCCl)Cc1ccccc1 (stereo not drawn) | inactive: -2.92% [middle of 5 runs] | 
CCCCCCn1c(N)c(C(=O)NCCN2CCOCC2)c2nc3ccccc3nc21 | inactive: -15.3% | 
O=c1oc(Cl)c(Cl)c2ccccc12 | inactive: -3.35% and inactive: -0.931% and inactive: -11.9% | 
O=C1C=C2C(=CCOC2O)O1 (stereo not drawn) | inactive: -12.5% | 
CN(N=O)c1cc(O)ccc1O | inactive: 0.381% and inactive: -13.2% | 
